# Source: the supplement of paper PMC11417369
# ± gives the standard deviation of the averaged measurements. The list shows a part of the results.
# Test system: PfAP2-LT AP2 domain (GST-tagged)
# Assay: gcPBM binding intensity (ln(normalized median fluorescence intensity)); higher = stronger DNA binding
# Summary of the method: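 Using an Agilent 4 × 180k array, primer-extended double-stranded 36-bp intergenic genomic probes and negative controls were exposed for 1 h to GST-fused P. falciparum DNA-binding domains expressed in E. coli. Binding was carried out in 1× PBS with 1% milk, 0.2 mg/ml BSA, 0.5% salmon testes DNA and 0.03% Triton X-100, and protein was detected with Alexa488 anti-GST antibody and a 488 nm scan. Binding intensity is the highest Masliner-normalised natural-log median intensity across replicate spots of either probe orientation.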
row,Sequence,gcPBM binding intensity (ln)
1,TATATTATTTATATTTGTACACAGCGATATGAAATA [XGTACX_site987],8.56 ± 0.46
2,TACAATTTAAAACACACACACAATAATACATATATA [CACACA_site1251],9.74 ± 0.35
3,ATATTATTATAAACTTCACACATTTTATGGGTTTTT [CACACA_site4631],8.81 ± 0.43
4,CATAAGCACAAGCACAAGCACACATTTATATATATA [CACACA_site882],9.07 ± 0.46
5,CGCATATTTTATGTTTGTACTCATATGAATATCATA [XGTACX_site4717],8.72 ± 0.49
6,TTTTACAAAATAAAAATATAGAATACGGTAAATTAT [GTGCAC_negctrl_site40],8.59 ± 0.35
7,TAAAAATGTGGACACACACACATATTTATATTTAAT [CACACA_site6827],9.18 ± 0.36
8,TGTTGATGATATTACACACCCAATGAGAAAAGGAAT [CACACA_site2072],9.04 ± 0.35
9,AAATAAGAGCGTAGCACACACGCATTTTATAAATGT [CACACA_site741],9.19 ± 0.38
10,TTTTTTTTTTTTTTTGCATGTTGTTTAATGTATTGT [TGCATGCA_site772],8.73 ± 0.5
11,TATCATTTTATTATTCTACACACTTATCTATAATTA [CACACA_site7894],8.87 ± 0.56
12,AAATATTTTTTTTCTACACACATACAAATATAGATT [CACACA_site7164],8.88 ± 0.54
13,ATGCCCCATATAAACACACAAATAAAAAGAATATAC [CACACA_site7292],9.31 ± 0.45
14,TATATTTTATAAAAAAGTACACATGAAAATGTATTT [XGTACX_site5889],8.49 ± 0.47
15,ATATTTAAAGAATAAGTGCAAAATGTAATTAATTTT [GTGCAC_site9901],8.76 ± 0.42
16,TATTTATTACTATGTAAACACACATGCAATATATGT [CACACA_site8288],9.1 ± 0.42
17,TGTAGTCTGGAGAAACGTACACAGTATCTGGTAACA [XGTACX_site4938],8.7 ± 0.43
18,AAAGGGGATATATGAACACACAAAAAAAAAATATAT [CACACA_site2896],9.13 ± 0.68
19,TTTTTTCCTTTTAATTGTACACAGATATAATATATT [XGTACX_site2230],8.67 ± 0.47
20,AAATTTTATTATAGCAGTACAATATAATATTATTAA [XGTACX_site1971],8.43 ± 0.47
21,TGGTATGTTTTACAAAGTACCCATCGATTCTTATGT [XGTACX_site2822],8.82 ± 0.51
22,ATATATATATATATATGTACTTATATATAATATAGA [XGTACX_site3488],9.22
23,GTACTCTTCTCCAGACTGCACTATACGACTCGTACA [GTGCAC_site9770],9.1 ± 0.37
24,AATATATTTTTCTACCGTACATAATAAAATATATAT [XGTACX_site1777],8.68 ± 0.42
25,GAACCACTAAAATGAGCATGCTCATATTTACATATA [TGCATGCA_site1033],8.83 ± 0.34
